According to article PMC12432536, “2‐Oxoglutarate Analog‐Based Biomolecular Tools for Exploring Structure–Activity Relationships in Nonheme Iron Enzymes” (Chembiochem, 2025):

Columns and labels:
M299A PHD2 = target: T1, M299A PHD2 (Homo sapiens, UniProt Q9GZT9, M299A); experiment: Hydroxylation assay of PHD2 mutant M299A in the presence of analogs; assay type: biochemical; conditions: 1 mM analog
T1 construct: WT-PHD2181-426 and mutants were expressed and purified as previously described; His6 (N); made in house; host or cells: E. coli BL21(DE3), pET-28a(+)
Source text: (§1) We were encouraged by our computational studies to experimentally validate the predicted binding modes and interactions of the analogs using mutagenesis studies. We constructed five mutants (I256A, W258F, W258H, M299A, and Y310T) and monitored their activity using our hydroxylation assay in the presence of 1a and 1c to verify the importance of specific amino acids contributing to analog binding and inhibition (Figure 4D). The Y310T mutant was constructed to probe the potential hydrogen bond between the o‐methoxy group of 1c and Y310. However, hydroxylation activity was not observed with this mutant, likely due to perturbing interactions with the substrate, making further evaluation not possible.^[ [54] ^] The mutant was constructed to probe potential hydrophobic interactions with the methoxy‐substituted aryl rings. […] The W258F mutant was constructed to probe a potential hydrogen bond with the p‐methoxy group of both analogs, as the phenylalanine substitution should remove the hydrogen bond donating ability of the 258 residue. […] The W258H mutant was also constructed to probe the potential hydrogen bond with p‐methoxy group of both analogs, however, the histidine substitution should maintain the hydrogen bond donating ability of the 258 residue. […]
(§2) Activity was monitored in the presence […]
(§3) All spectra were recorded in […]

W258F PHD2 = target: T2, W258F PHD2 (Homo sapiens, UniProt Q9GZT9, W258F); experiment: Hydroxylation assay of PHD2 mutant W258F in the presence of analogs; assay type: biochemical; conditions: 1 mM analog
T2 construct: WT-PHD2181-426 and mutants were expressed and purified as previously described; His6 (N); made in house; host or cells: E. coli BL21(DE3), pET-28a(+)
Source text: as §1, §2, §3

PHD2 [1] = target: T3, PHD2 (Homo sapiens, UniProt Q9GZT9); experiment: PHD2 hydroxylation activity assay (MALDI-TOF, HIF-1α peptide mimic): inhibition screen and dose response; conditions: for inhibition of PHD2 activity in activity screen: 1 mM 2OG analogue, 1 mM 2OG, 2 µM PHD2, hydroxylation assay
I256A PHD2 = target: T4, I256A PHD2 (Homo sapiens, UniProt Q9GZT9, I256A); experiment: Hydroxylation assay of PHD2 mutant I256A in the presence of analogs; assay type: biochemical; conditions: 1 mM analog
T4 construct: WT-PHD2181-426 and mutants were expressed and purified as previously described; His6 (N); made in house; host or cells: E. coli BL21(DE3), pET-28a(+)
Source text: as §1, §2, §3

W258H PHD2 = target: T5, W258H PHD2 (Homo sapiens, UniProt Q9GZT9, W258H); experiment: Hydroxylation assay of PHD2 mutant W258H in the presence of analogs; assay type: biochemical; conditions: 1 mM analog
T5 construct: WT-PHD2181-426 and mutants were expressed and purified as previously described; His6 (N); made in house; host or cells: E. coli BL21(DE3), pET-28a(+)
Source text: as §1, §2, §3

PHD2 [2] = target: T3, PHD2; experiment: 2OG-dependent steady-state kinetics of PHD2 inhibition; assay type: biochemical; set-up: WT-PHD2181-426 was incorporated into pET-28a(+) expression vector; His6 (N); made in house; host or cells: E. coli BL21(DE3), pET-28a(+); conditions: for kcat of PHD2: ± SD; for Ki: from Michaelis–Menten / Lineweaver–Burk plots, varied 2OG, read-out: inhibition constant (Ki); for mechanism of inhibition: versus 2OG
Source text: Next, we wanted to confirm that the analogs were in direct competition with 2OG. […] Michaelis–Menten plots and Lineweaver–Burk plots were used to confirm the mechanism of inhibition. […] Lineweaver–Burk plots further confirmed this observation as the trendlines intersected at the ordinate (Figure 3B and S5B, Supporting Information).
Briefly, the inhibition screening assay
Activity was monitored in the presence
which were dependent on the analogues’ potency.
MALDI-TOF mass spectrometry was used to
and 0.1% trifluoroacetic acid.
Colorimetric Assay for 2OG Detection
The solutions were then diluted 2-
as §3

HIF‐1α = experiment: Immunoblot monitoring of HIF-1α levels in HEK-293T cells; assay type: cell-based; conditions: 18 hours; for dose at which noticeable HIF‐1α accumulation is seen: highest dose 2000 μM

Compound | inhibition of M299A PHD2 relative to WT (M299A PHD2) | inhibition of W258F PHD2 relative to WT (W258F PHD2) | IC50 (PHD2 [1]) [µM] | inhibition of I256A PHD2 relative to WT (I256A PHD2) | inhibition of W258H PHD2 relative to WT and W258F (W258H PHD2) | kcat of PHD2 (PHD2 [2]; 200 µM analog) [s⁻¹] | kcat of PHD2 (PHD2 [2]; 400 µM analog) [s⁻¹] | kcat of PHD2 (PHD2 [2]; 600 µM analog) [s⁻¹] | Ki (PHD2 [2]) [µM] | mechanism of inhibition (PHD2 [2]) | kcat of PHD2 (PHD2 [2]; 100 µM analog) [s⁻¹] | kcat of PHD2 (PHD2 [2]; 300 µM analog) [s⁻¹] | inhibition of PHD2 activity in activity screen (PHD2 [1]) | HIF‐1α accumulation (HIF‐1α; increasing doses) | dose at which noticeable HIF‐1α accumulation is seen (HIF‐1α) [µM]
COC(=O)CNC(=O)C(=O)OC [DMOG, dimethyloxalylglycine, reference compound] |  |  |  |  |  |  |  |  |  |  |  |  |  |  | 500
O=C(O)CNC(=O)C(=O)O [NOG, N‐oxalylglycine, reference compound] |  |  |  |  |  |  |  |  |  |  |  |  | complete inhibition |  | 

Now from value to compound, other results behind:

inhibition of M299A PHD2 relative to WT (M299A PHD2) | inhibition of W258F PHD2 relative to WT (W258F PHD2) | IC50 (PHD2 [1]) [µM] | inhibition of I256A PHD2 relative to WT (I256A PHD2) | inhibition of W258H PHD2 relative to WT and W258F (W258H PHD2) | kcat of PHD2 (PHD2 [2]; 200 µM analog) [s⁻¹] | kcat of PHD2 (PHD2 [2]; 400 µM analog) [s⁻¹] | kcat of PHD2 (PHD2 [2]; 600 µM analog) [s⁻¹] | Ki (PHD2 [2]) [µM] | mechanism of inhibition (PHD2 [2]) | kcat of PHD2 (PHD2 [2]; 100 µM analog) [s⁻¹] | kcat of PHD2 (PHD2 [2]; 300 µM analog) [s⁻¹] | Compound | inhibition of PHD2 activity in activity screen (PHD2 [1]) | HIF‐1α accumulation (HIF‐1α; increasing doses) | dose at which noticeable HIF‐1α accumulation is seen (HIF‐1α) [µM]
decreased | significantly diminished | 292 ± 65 | mostly maintained | some inhibition | 0.0164 ± 0.0002 | 0.0157 ± 0.0009 | 0.0160 ± 0.0005 | 140 ± 10 | competitive against 2OG |  |  | COc1ccc(/C=C/C(=O)C(=O)O)cc1 [1a] | increased inhibition compared to analogs 1b and 1d | not detected | 
 |  | 1180 ± 270 |  |  |  |  |  |  |  |  |  | COc1ccc(/C=C/C(=O)C(=O)O)cc1OC [1b] |  |  | 
decreased | significantly diminished | 118 ± 35 | mostly maintained | some inhibition | 0.0161 ± 0.0009 |  |  | 70 ± 7 | competitive against 2OG | 0.0161 ± 0.0007 | 0.016 ± 0.001 | COc1cc(OC)c(/C=C/C(=O)C(=O)O)c(OC)c1 [1c] | increased inhibition compared to analogs 1b and 1d |  | 2000
